Results published in PubChem BioAssay (Tox21).
Where “and” joins values, the source holds several entries; their conditions need not be identical. Identical values can stand only once. This list was built around the results that the source calls inconclusive (neither active nor inactive); the mix of calls is not that of the screen. Where the call is inconclusive, the potency comes from a doubtful curve fit. Calls of active or inactive are those of the source. The call rests on the fitted dose curve; in most records, active means well fitted inhibition curve with a large enough effect in the signal ratio in the repeat runs (not every such curve was filed as active); inconclusive means weak or mixed curves, or effect the other way; inactive means no such curve, though single readings can be large or run the other way; the % refers to the signal ratio.

target: Peroxisome proliferator-activated receptor delta (Homo sapiens) (UniProt Q03181); test: qHTS assay to identify small molecule antagonists of the peroxisome proliferator-activated receptor delta (PPARd) signaling pathway (AID 743215); conditions: HEK293H PPARd-UAS-bla, beta-lactamase FRET ratio, antagonist, 17 h; ratio activity, negative = inhibition: at 62 µM (top of the series) unless noted;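 further: cells stimulated with agonist L165041 at 300 nM final during compound exposure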
Chain of UniProt Q03181 (Q03181 whole entry, looked up): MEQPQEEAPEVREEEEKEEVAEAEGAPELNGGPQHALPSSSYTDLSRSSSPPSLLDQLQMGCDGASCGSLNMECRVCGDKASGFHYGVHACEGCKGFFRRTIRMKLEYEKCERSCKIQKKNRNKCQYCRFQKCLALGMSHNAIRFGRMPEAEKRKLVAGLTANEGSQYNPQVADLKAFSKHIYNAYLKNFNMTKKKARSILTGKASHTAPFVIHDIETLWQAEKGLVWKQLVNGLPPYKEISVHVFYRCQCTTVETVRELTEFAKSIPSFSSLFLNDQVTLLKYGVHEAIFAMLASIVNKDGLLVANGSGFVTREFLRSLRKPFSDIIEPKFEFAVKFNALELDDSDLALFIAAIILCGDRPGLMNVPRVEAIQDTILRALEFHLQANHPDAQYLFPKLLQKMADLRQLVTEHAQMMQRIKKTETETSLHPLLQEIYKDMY
Procedure, shortened: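 HEK293H GeneBLAzer PPARd UAS-bla reporter cells; cpd + L165041 300 nM final, 17 h 37 C; LiveBLAzer B/G FRET substrate 2 h RT; fluorescence intensity read-out. Antagonist mode.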
On the % scale 0 is the no-effect control and ±100 the full control effect; potency means the concentration at half of the fitted maximal effect; tags describe the fitted curve by direction and shape or compound fluorescence and quenching.

How did the Potency turn out when `CC(C)(C)c1ccc(O)c(O)c1` was run?
Its Potency is active: 50.7 µM and inconclusive: 24.5 µM [inhibitor, partial curve, poor fit].

Which Potency does the source give for `C=CC(=O)OCCOCCOCCOCCOC(=O)C=C` here?
Its Potency is inconclusive: 55.2 µM [inhibitor] and inconclusive: 61.1 µM [single point].

`CN[C@H]1CC[C@@H](c2ccc(Cl)c(Cl)c2)c2ccc(S(N)(=O)=O)cc21` was tested. Which Potency did it give?
Its Potency is active: 34.7 µM.

With `O=c1n(CC2CO2)c(=O)n(CC2CO2)c(=O)n1CC1CO1` (configuration not stated) as the compound, how does the Potency read?
The Potency was inconclusive: 43.4 µM [rising, partial curve].

What about the ratio activity, negative = inhibition of the same compound?
Its ratio activity, negative = inhibition is inconclusive: -30.8%.

For `C[C@H]1O[C@@H](O[C@H]2CC[C@@]3(C)[C@H](CC[C@@H]4[C@@H]3C[C@@H](O)[C@]3(C)[C@@H](C5=CC(=O)OC5)CC[C@]43O)C2)C[C@H](O)[C@@H]1O[C@H]1C[C@H](O)[C@H](O[C@H]2C[C@H](O)[C@H](O[C@@H]3O[C@H](CO)[C@@H](O)[C@H](O)[C@H]3O)[C@@H](C)O2)[C@@H](C)O1`, which Potency is on record?
Its Potency is inconclusive: 2.11 µM [rising, full curve, poor fit].

Which ratio activity, negative = inhibition does the source give for `COc1cc(-c2nc(NC(=O)c3cc4cc(C)cc(C)c4n3CC(=O)O)sc2CCC2CCCCC2)c(OC)cc1Cl` here?
Its ratio activity, negative = inhibition is inconclusive: -38.4%.

How did the Potency turn out when `CCCCC(CC)CN=C(N)NC(N)=NCCCCCCN=C(N)NC(N)=NCC(CC)CCCC` (configuration not stated) was run?
Its Potency is inconclusive: 33.5 µM [cytotoxic, single point].

For `Cc1ccc(-c2cc(C(F)(F)F)nn2-c2ccc(S(N)(=O)=O)cc2)cc1`, which Potency is on record?
Its Potency is inconclusive: 27.4 nM [fluorescent, full curve, poor fit] and inconclusive: 54.9 µM [inhibitor, single point].

How did the Potency turn out when `CN(C)C(=O)C1(N2CCCCC2)CCN(CC[C@@]2(c3ccc(Cl)c(Cl)c3)CN(C(=O)c3ccccc3)CCO2)CC1` was run?
The Potency was inconclusive: 51.3 µM [cytotoxic, partial curve, poor fit].

How did the Potency turn out when `CCCCCCCCCCCCCC[P+](CCCC)(CCCC)CCCC` (tested in a mixture with another compound) was run?
The Potency was “inactive”.

Which Potency does the source give for `[Cl][Bi]([Cl])([c]1ccccc1)([c]1ccccc1)[c]1ccccc1` here?
Its Potency is inconclusive: 1.09 µM.

How did the Potency turn out when `C[C@@H](NCCCc1cccc(C(F)(F)F)c1)c1cccc2ccccc12` was run?
Its Potency is active: 29.8 µM.

For `CCCCCCCCCCCCCCCCCC[N+](C)(C)C`, which Potency is on record?
Its Potency is inconclusive: 61.9 µM [cytotoxic, single point].

For `CCN(CC)C(=S)SSC(=S)N(CC)CC`, which Potency is on record?
The Potency was active: 0.0871 µM.

`Cc1cc(F)ccc1-c1cc(N2CC[C@@H](O)[C@H]2CO)ncc1N(C)C(=O)C(C)(C)c1cc(C(F)(F)F)cc(C(F)(F)F)c1` was tested. Which Potency did it give?
Its Potency is inconclusive: 27.1 µM [cytotoxic, partial curve].

target: Bile acid receptor (Homo sapiens) (UniProt Q96RI1); test: qHTS assay to identify small molecule antagonists of the farnesoid-X-receptor (FXR) signaling pathway (AID 743217); conditions: HEK293T FXR-UAS-bla, beta-lactamase ratio, CDCA-stimulated, 16 h; activity change, negative = inhibition: at 62.6 µM (top of the series) unless noted
Chain of UniProt Q96RI1 (Q96RI1 whole entry, looked up): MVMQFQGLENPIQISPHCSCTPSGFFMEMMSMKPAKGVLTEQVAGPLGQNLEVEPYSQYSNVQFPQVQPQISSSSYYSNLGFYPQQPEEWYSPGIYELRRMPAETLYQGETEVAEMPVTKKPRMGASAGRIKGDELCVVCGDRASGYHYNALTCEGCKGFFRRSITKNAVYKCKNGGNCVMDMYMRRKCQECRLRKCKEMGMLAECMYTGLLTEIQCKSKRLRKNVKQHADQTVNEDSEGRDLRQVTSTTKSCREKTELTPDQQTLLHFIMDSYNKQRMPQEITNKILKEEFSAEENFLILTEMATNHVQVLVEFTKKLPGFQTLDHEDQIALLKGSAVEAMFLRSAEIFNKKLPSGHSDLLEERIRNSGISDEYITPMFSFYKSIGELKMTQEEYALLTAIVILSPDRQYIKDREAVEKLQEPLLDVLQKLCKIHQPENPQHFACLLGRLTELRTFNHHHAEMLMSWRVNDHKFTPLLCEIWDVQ
Procedure, shortened: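 Read-out: beta-lactamase FRET fluorescence (LiveBLAzer B/G substrate, 2 h, room temperature) in GeneBLAzer FXR-UAS-bla HEK 293T cells. Compounds were co-dosed with 50 uM chenodeoxycholic acid (final) and incubated 16 h at 37 °C.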

For `CC(C)(C)CC(C)(C)c1ccccc1O`, which Potency is on record?
Its Potency is inconclusive: 39.1 µM [rising, partial curve].

How did the Potency turn out when `CCCCCC(=O)O[C@]1(C(C)=O)CC[C@H]2[C@@H]3CCC4=CC(=O)CC[C@]4(C)[C@H]3CC[C@@]21C` was run?
Its Potency is inconclusive: 48.6 µM [rising, partial curve] and inconclusive: 29.8 µM [rising, partial curve].

How did the Potency turn out when `C=C1C(CCl)(CCl)C2(Cl)C(Cl)C(Cl)C1(Cl)C2(Cl)Cl` (configuration not stated) was run?
The Potency was inconclusive: 54.3 µM.

How did the Potency turn out when `CCc1cc(Cc2cc(CC)cc(C(C)(C)C)c2O)c(O)c(C(C)(C)C)c1` was run?
The Potency was inconclusive: 30.9 µM [cytotoxic, partial curve, poor fit].

With `O=C(Oc1cccc2cccnc12)c1ccccc1` as the compound, how does the Potency read?
The Potency was inconclusive: 7.5 µM [rising, partial curve].

For `CCCCCCCCCCCCc1ccc(O)cc1`, which Potency is on record?
The Potency was inconclusive: 61.6 µM [cytotoxic, single point].

Which Potency does the source give for `CCCCCCCCCOC(=O)c1ccc(O)cc1` here?
The Potency was inconclusive: 60.8 µM [cytotoxic, single point].

Which activity change, negative = inhibition does the source give for `Oc1c(Cl)cc(Cl)c2cccnc12` here?
Its activity change, negative = inhibition is inconclusive: 23.8%.

With `Clc1ccc2n[nH]nc2c1` as the compound, how does the Potency read?
Its Potency is inconclusive: 30.9 µM [cytotoxic, partial curve, poor fit].

How did the Potency turn out when `Clc1nc(C(Cl)(Cl)Cl)c(Cl)c(Cl)c1Cl` was run?
The Potency was inconclusive: 77.6 µM [rising, single point].

How did the Potency turn out when `CCCCCCCCCCCCN1CCCC1=O` was run?
The Potency was inconclusive: 54.9 µM.

`C=CC(=O)OCC(CO)(COCC(COC(=O)C=C)(COC(=O)C=C)COC(=O)C=C)COC(=O)C=C` was tested. Which Potency did it give?
Its Potency is inconclusive: 6.09 µM.

For `CC(C)(C)c1ccc(O)c(O)c1`, which Potency is on record?
The Potency was inconclusive: 40.2 µM [inhibitor, partial curve] and inconclusive: 25.5 µM [inhibitor].

How did the Potency turn out when `CN[C@H]1CC[C@@H](c2ccc(Cl)c(Cl)c2)c2ccc(S(N)(=O)=O)cc21` was run?
Its Potency is active: 49 µM.

With `C[C@H]1O[C@@H](O[C@H]2CC[C@@]3(C)[C@H](CC[C@@H]4[C@@H]3C[C@@H](O)[C@]3(C)[C@@H](C5=CC(=O)OC5)CC[C@]43O)C2)C[C@H](O)[C@@H]1O[C@H]1C[C@H](O)[C@H](O[C@H]2C[C@H](O)[C@H](O[C@@H]3O[C@H](CO)[C@@H](O)[C@H](O)[C@H]3O)[C@@H](C)O2)[C@@H](C)O1` as the compound, how does the Potency read?
Its Potency is inconclusive: 1.5 µM [rising, full curve].

Which Potency does the source give for `CCC(C)(C)c1cc(O)c(C(C)(C)CC)cc1O` here?
Its Potency is inconclusive: 54.9 µM.

Which Potency does the source give for `COc1cc(-c2nc(NC(=O)c3cc4cc(C)cc(C)c4n3CC(=O)O)sc2CCC2CCCCC2)c(OC)cc1Cl` here?
The Potency was inconclusive: 14.2 µM [rising, partial curve].

Which Potency does the source give for `CCCCC(CC)CN=C(N)NC(N)=NCCCCCCN=C(N)NC(N)=NCC(CC)CCCC` (configuration not stated) here?
Its Potency is inconclusive: 33.5 µM [cytotoxic].

With `CC1=CC(=O)c2ccccc2C1=O` as the compound, how does the Potency read?
Its Potency is inconclusive: 49 µM [partial curve] and inconclusive: 33.5 µM [single point].

For `CN(C)C(=O)C1(N2CCCCC2)CCN(CC[C@@]2(c3ccc(Cl)c(Cl)c3)CN(C(=O)c3ccccc3)CCO2)CC1`, which Potency is on record?
Its Potency is inconclusive: 40.8 µM [cytotoxic, single point].

With `CCCCCCCCCCCCCC[P+](CCCC)(CCCC)CCCC` (tested in a mixture with another compound) as the compound, how does the Potency read?
Its Potency is inconclusive: 62 µM [cytotoxic, single point].

Which Potency does the source give for `C[C@@H](NCCCc1cccc(C(F)(F)F)c1)c1cccc2ccccc12` here?
The Potency was inconclusive: 33.5 µM.

Which Potency does the source give for `CCCCCCCCCCCCCCCCCC[N+](C)(C)C` here?
The Potency was inconclusive: 55.1 µM [cytotoxic].

For `Cc1cc(F)ccc1-c1cc(N2CC[C@@H](O)[C@H]2CO)ncc1N(C)C(=O)C(C)(C)c1cc(C(F)(F)F)cc(C(F)(F)F)c1`, which Potency is on record?
The Potency was inconclusive: 10.8 µM.

How did the Potency turn out when `C[C@]12CC[C@@H]3c4ccc(O)cc4CC[C@H]3[C@@H]1CC[C@@H]2OC(=O)CCC1CCCC1` was run?
The Potency was inconclusive: 24.5 µM [rising, partial curve, poor fit].

What about the activity change, negative = inhibition of the same compound?
Its activity change, negative = inhibition is inconclusive: -38%.
